# Data from PubChem BioAssay AID720708 (National Center for Advancing Translational Sciences (NCATS), 2013).
# About 660 (0.18%) of roughly 360,000 compounds were called active. Inconclusive means that the source gave no clear call. Such entries were picked first, then a sample of the others. The call rests on the fitted dose curve; in most records, active means well fitted inhibition curve with a large enough effect; inconclusive means small, poorly fitted or top-dose-only effect; inactive means no such curve, though single readings can be large or run the other way. Potencies of inconclusive entries are left out as doubtful fits.
# Biological target: Rap guanine nucleotide exchange factor 4 (Homo sapiens) (UniProt Q8WZA2)
# Assay: qHTS for Antagonist of cAMP-regulated guanine nucleotide exchange factor 2 (EPAC2): primary screen; further: nearly all actives have a fitted effect of over 45% in size
# Conditions: EPAC2 GEF exchange of Rap1B-BODIPY-GDP, fluorescence; series mostly up to 114 µM
# Potency means the concentration at half of the fitted maximal effect; tags describe the fitted curve by direction and shape.
# Chain of UniProt Q8WZA2 (Q8WZA2 whole entry, looked up): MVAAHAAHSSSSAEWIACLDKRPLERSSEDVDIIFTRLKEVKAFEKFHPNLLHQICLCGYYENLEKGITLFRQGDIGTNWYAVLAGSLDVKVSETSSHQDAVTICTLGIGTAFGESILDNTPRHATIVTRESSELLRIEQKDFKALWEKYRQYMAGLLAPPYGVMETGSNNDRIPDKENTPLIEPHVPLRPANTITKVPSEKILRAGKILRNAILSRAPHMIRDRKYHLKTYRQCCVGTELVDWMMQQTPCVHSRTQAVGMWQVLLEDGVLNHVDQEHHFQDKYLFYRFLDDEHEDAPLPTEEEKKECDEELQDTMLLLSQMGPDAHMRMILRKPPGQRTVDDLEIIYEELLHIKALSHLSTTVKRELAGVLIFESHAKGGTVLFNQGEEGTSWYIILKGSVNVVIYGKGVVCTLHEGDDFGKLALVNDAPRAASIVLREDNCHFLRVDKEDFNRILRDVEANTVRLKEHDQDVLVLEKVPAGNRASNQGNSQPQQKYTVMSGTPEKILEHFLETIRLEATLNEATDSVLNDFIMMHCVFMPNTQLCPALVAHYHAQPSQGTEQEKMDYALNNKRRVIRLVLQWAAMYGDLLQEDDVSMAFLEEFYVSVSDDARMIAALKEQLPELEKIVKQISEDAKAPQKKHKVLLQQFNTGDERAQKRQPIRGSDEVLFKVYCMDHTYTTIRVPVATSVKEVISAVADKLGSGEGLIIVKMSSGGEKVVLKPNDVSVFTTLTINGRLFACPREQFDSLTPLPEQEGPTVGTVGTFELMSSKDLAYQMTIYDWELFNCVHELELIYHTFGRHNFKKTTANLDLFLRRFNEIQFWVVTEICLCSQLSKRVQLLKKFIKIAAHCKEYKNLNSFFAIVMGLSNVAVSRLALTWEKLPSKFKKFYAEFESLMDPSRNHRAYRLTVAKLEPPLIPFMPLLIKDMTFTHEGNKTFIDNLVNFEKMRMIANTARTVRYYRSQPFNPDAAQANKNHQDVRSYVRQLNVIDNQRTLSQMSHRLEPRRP
row,SMILES,Potency
1,COc1ccc(CN(CCC(c2ccco2)C(C)C)C(C)=O)cc1OC (stereo unspecified),"inconclusive [inhibitor, full curve, poor fit]"
2,O=C(Cc1cccc2ccccc12)Nc1ccc(Br)cc1C(=O)O,"inconclusive [inhibitor, single point]"
3,COc1cc(OC)cc(-c2cc3ccc(OC)cc3cn2)c1,"inconclusive [inhibitor, partial curve]"
4,Cc1[nH]n(-c2ccc([N+](=O)[O-])cc2)c(=O)c1C=NCCN1CCN(C(=O)c2ccc(Br)cc2)CC1,inactive
5,CN(C)S(=O)(=O)c1cccc(NC(=O)C(c2ccccc2)c2ccccc2)c1,"inconclusive [inhibitor, full curve]"
6,O=C(Nc1ccccc1N1CCOCC1)c1cccc2ccccc12,"inconclusive [inhibitor, partial curve]"
7,C=CCNC(=O)c1n[nH]c2c1CC(C(C)(C)CC)CC2 (stereo unspecified),"inconclusive [inhibitor, single point]"
8,Cc1cc(SCC(=O)c2ccc3c(c2)OCO3)nc2ccccc12,inactive
9,COc1ccc(/C(N)=N/OC(=O)c2cccs2)cc1OC,"inconclusive [inhibitor, single point]"
10,O=C(Nc1cccc(-c2cn3ccccc3n2)c1)c1cc2ccccc2oc1=O,"inconclusive [inhibitor, partial curve]"
11,O=C1C=CC(=O)N1Cc1ccccc1,"inconclusive [inhibitor, single point]"
12,CCc1ccc(S(=O)(=O)/N=C2\C=C(Nc3cccc(C(=O)O)c3)C(=O)c3ccccc32)cc1,"inconclusive [inhibitor, partial curve]"
13,CC(=O)Nc1ccc(S(=O)(=O)NC2=NCN(c3ccc([N+](=O)[O-])cc3)CN2)cc1,"inconclusive [inhibitor, single point]"
14,CC1C/C(=C/c2cccn2C)C(=O)/C(=C/c2cccn2C)C1 (stereo unspecified),"inconclusive [inhibitor, full curve]"
15,Cc1ccc(C)c(N2CCN(C(=O)CCCn3c(=O)c4cccn4c4cccnc43)CC2)c1,"inconclusive [inhibitor, full curve]"
16,Cc1ccccc1CC(=O)N1CC(C)OC(C)C1 (stereo unspecified),inactive
17,COc1cccc2c1Oc1ncccc1N(C(=O)CCC(=O)NCc1ccccc1)C2,"inconclusive [inhibitor, partial curve]"
18,COc1cccc(-c2ncc3ccccc3c2COC(=O)N2CCCCC2)c1,"inconclusive [inhibitor, partial curve]"
19,C[C@H](c1ccccc1)N1C[C@H](COCc2ccccc2)Oc2cc(N3CC[C@H](N(C)C)C3)ccc2S1(=O)=O,"inconclusive [inhibitor, partial curve]"
20,CC(C)N1C(=O)c2ccccc2N(Cc2ccccc2)S1(=O)=O,"inconclusive [inhibitor, partial curve]"
21,CC1(c2ccccc2)CC(C)(C)N2C(=O)/C(=C3\SC(=S)NC3=O)c3cccc1c32 (stereo unspecified),"inconclusive [inhibitor, single point]"
22,CN1C(=O)/C(=C/C=C2/CCCN2C)N(C)C1=S,"inconclusive [inhibitor, single point]"

row,SMILES,Potency
1,CCOc1ccc(C(c2c(O)nc(SC)n(C)c2=O)c2c(O)nc(SC)n(C)c2=O)cc1,inactive
2,O=C1CC2(CCCCC2)Oc2ccc(F)cc21,"inconclusive [inhibitor, partial curve]"
3,COc1ccccc1CN(C(=O)CNC(=O)c1ccco1)C(C(=O)NCC1CCCO1)c1ccc(OC)c(OC)c1 (stereo unspecified),"inconclusive [inhibitor, single point]"
4,O=C(COC(=O)c1cccc(F)c1)Nc1cccc(S(=O)(=O)N2CCCCC2)c1,inactive
5,CC1CCCN(c2c([N+](=O)[O-])cc(C(=O)O)cc2[N+](=O)[O-])C1 (stereo unspecified),"inconclusive [inhibitor, partial curve]"
6,O=C1CC2(CCCCCC2)Oc2ccccc21,"inconclusive [inhibitor, partial curve, poor fit]"
7,CC(C)CC1C(=O)N(Cc2cn(Cc3ccco3)nn2)CCS(=O)(=O)N1Cc1ccc(-c2ccc(F)nc2)cc1 (stereo unspecified),"inconclusive [inhibitor, partial curve]"
8,CC(NC(=O)c1ccccc1F)C12CC3CC(CC(C3)C1)C2 (stereo unspecified),"inconclusive [inhibitor, partial curve]"
9,COc1cc(/C=C2/SC(=O)NC2=O)ccc1OCc1ccccc1,"inconclusive [inhibitor, full curve, poor fit]"
10,COC(=O)c1ccc2nc(-c3ccco3)c(Cc3ccccc3)n2c1,"inconclusive [inhibitor, partial curve, poor fit]"
11,COC(=O)C(Cc1ccc(O)cc1)N1Cc2ccccc2C1=O (stereo unspecified),inactive
12,COc1cccc(C(C(=O)NC2CCCC2)N2CCN(c3cc(C)ccc3C)CC2)c1OC (stereo unspecified),"inconclusive [inhibitor, full curve]"
13,O=[N+]([O-])c1cccc(Cl)c1NCCNS(=O)(=O)c1ccc(Cl)cc1,inactive
14,CCNS(=O)(=O)c1ccc(NC(=O)Nc2cccc(C(F)(F)F)c2)cc1,"inconclusive [inhibitor, partial curve]"
15,O=C1Nc2ccccc2SC1c1ccccc1 (stereo unspecified),"inconclusive [inhibitor, full curve]"
16,O=C1CC(c2ccc(OCCCCCOc3ccc(C4CC(=O)NC4=O)cc3)cc2)C(=O)N1 (stereo unspecified),"inconclusive [inhibitor, single point]"
17,Cc1cc(C)c(NC2=NS(=O)(=O)c3ccccc32)c(C)c1,"inconclusive [inhibitor, full curve, poor fit]"
18,CC(=O)C1=CCC(c2ccccc2Cl)N(S(=O)(=O)c2ccc(C)cc2)C1 (stereo unspecified),"inconclusive [inhibitor, full curve]"
19,CCn1ncc(Br)c1C(=O)Nc1cc(C)cc(C)c1,"inconclusive [inhibitor, partial curve]"
20,CN(C)CCNC(=O)c1ccc(-c2cn3c(-c4ccc(Oc5ccccc5)cc4)cnc3cn2)cc1,"inconclusive [inhibitor, partial curve]"
21,N#CC(C#N)=Cc1cccn1-c1ccc(C(=O)O)cc1,inactive
22,COC(=O)NNC(=O)C12CC3CC(CC(C3)C1)C2,"inconclusive [inhibitor, single point]"

row,SMILES,Potency
1,C=CC[C@@H](CC(=O)N(CCO)Cc1ccccc1)C(=O)N[C@H](COC(=O)[C@@H](CC=C)CC(=O)OC(C)(C)C)Cc1ccccc1,"inconclusive [inhibitor, full curve, poor fit]"
2,CN(C)c1ccc(C(O)c2cc3ccccc3s2)cc1 (stereo unspecified),"inconclusive [inhibitor, partial curve]"
3,Cc1cccc(CN2CCC(n3nccc3NC(=O)CCCc3ccccc3)CC2)c1,inactive
4,Cc1ccc(CNC(=O)c2cn(C3CCCCC3)c(=O)c3c2c2ccccc2n3C)o1,inactive
5,COc1ccc(-c2ccc(N)cn2)cn1,inactive
6,O=C1C(Cl)=C(N2CCC(C(=O)O)CC2)C(=O)c2ccccc21,"inconclusive [inhibitor, partial curve]"
7,CCC/C=C/c1ccc(CN2C(CC(C)C)C(=O)N(Cc3cn(CCC4OCCO4)nn3)CCS2(=O)=O)cc1 (stereo unspecified),"inconclusive [inhibitor, full curve]"
8,CC(C)(C)N1CC(C(=O)Nc2ccc(S(=O)(=O)N3CCCCC3)cc2)CC1=O (stereo unspecified),inactive
9,COc1cc(CNc2ccc(O)cc2)cc(Br)c1OCc1ccccc1,"inconclusive [inhibitor, partial curve]"
10,Cc1ccc(C)c(NC(=O)c2ccccc2NS(=O)(=O)c2cc([N+](=O)[O-])ccc2C)c1,"inconclusive [inhibitor, full curve, poor fit]"
11,CN(C)C(=S)NC(=S)Nc1ccc2ccccc2c1,inactive
12,O=C(O)C/C(=C\c1cc2c(cc1Br)OCO2)c1nc2ccccc2s1,"inconclusive [inhibitor, partial curve, poor fit]"
13,O=C(/C=C/c1ccc(O)cc1)c1ccc(NC2=C(N3CCCCC3)C(=O)c3ccccc3C2=O)cc1,inactive
14,COc1ccc(C(=O)c2ccc(Cl)cc2)c(OC)c1OC,"inconclusive [inhibitor, partial curve]"
15,CC(=O)NC(C)(c1ccccc1)c1nc(-c2cnc3ccccc3c2)cs1 (stereo unspecified),inactive
16,CCOC(=O)c1c(-c2ccc(OC)cc2)oc2ccc(O)cc12,"inconclusive [inhibitor, single point]"
17,COc1ccc(S(=O)(=O)N2CCC(C(=O)NCCC(=O)NCc3cccnc3)CC2)cc1,inactive
18,C=C(C)Cn1c(SCC(=O)O)nnc1-c1ccc(C(C)(C)C)cc1,"inconclusive [inhibitor, partial curve]"
19,COc1ccc(S(=O)(=O)N2CCN(Cc3cc(OC)c(OC)c(OC)c3)CC2)cc1,inactive
20,Cc1c2cnn(-c3ccccc3)c(=O)c2c(C)n1CCCC(=O)N1CCN(C)CC1,inactive
21,O=C(NCCc1ccc(Cl)cc1)C1CCCN(S(=O)(=O)c2cnc[nH]2)C1 (stereo unspecified),"inconclusive [inhibitor, single point]"
22,CC(C)COC(=O)N1CCCCC1c1cc(C(=O)NCc2ccc(F)cc2)no1 (stereo unspecified),"inconclusive [inhibitor, full curve]"
